{"source": "patent US9061010B2", "about": "“Methods of treating a Flaviviridae family viral infection and compositions for treating a Flaviviridae family viral infection” (The Board of Trustees of the Leland Stanford Junior …, priority 2007, dated 2015)", "target": "HCV NS4B binding to the 3′ terminus of the HCV negative strand RNA (Hepatitis C virus genotype 1a, UniProt P27958)", "sequence (P27958 1712-1972, looked up, change not shown)": "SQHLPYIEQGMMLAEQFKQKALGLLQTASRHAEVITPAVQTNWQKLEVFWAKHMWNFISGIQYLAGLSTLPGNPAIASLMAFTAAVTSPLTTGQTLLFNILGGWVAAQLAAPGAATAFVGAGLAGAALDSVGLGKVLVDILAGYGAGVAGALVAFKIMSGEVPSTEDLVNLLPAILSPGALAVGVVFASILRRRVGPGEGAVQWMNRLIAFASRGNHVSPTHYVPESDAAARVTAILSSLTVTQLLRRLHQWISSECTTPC", "assay": "Microfluidic (MITOMI) in vitro RNA binding assay of NS4B", "details": "read-out: IC50 for inhibition of binding of HCV RNA by NS4B; microfluidics, FIG. 14", "data": [{"smiles": "O=C(O)C1=CC(=C(c2ccc(O)c(C(=O)O)c2)c2ccc(O)c(C(=O)O)c2)C=CC1=O", "note": "[ATA, Aurintricarboxilic acid]", "values": [{"measurement": "IC50", "value": "0.49 ± 0.01", "unit": "µM"}]}]}
